Measurements taken from patent US6846933B1, “Antimycobacterial compounds and method for making the same” (priority 2000, dated 2005).

Source text: A general procedure was developed to estimate the relative lipophilicities of compounds by observation of their partitioning between an aqueous solvent and water in biphasic liquid-liquid extraction. As depicted in FIG. 1, the ratio of amounts in each of the respective phases was obtained and compared to the ratio for INH as standard, viz., ratio is set to unity. The compounds of the invention have been prepared with lipophilicities several orders of magnitude greater than that of INH. The advent of a quantitative method for lipophilicity determinations has been particularly important in the examination of the compounds disclosed herein. It is unexpected that the compounds of the invention, such as the Schiff bases and oxadiazolines, have increases in molecular weights by a factor of as much as 2 or more with respect to isoniazid and also have increases in lipophilicities of as much as several orders of magnitude. For example, among the oxadiazolines, where substituent groups R1 or R2 may be aromatics substituted with polarizing functional groups, measured lipophilicities are unexpectedly high.
A general procedure was devised to estimate relative lipophilicities of the compounds of the invention by observation of their partitioning between an organic phase and water. Thus, to a weighed amount of compound (0.75 mmole) in a flat-bottomed Florence flask containing a stirring bar was delivered by pipet distilled water (5 mL) and also by pipet chloroform (5 mL). The flask was sealed with a cork and paraffin, and the contents were magnetically stirred vigorously for 30 minutes. The cork, paraffin and stirring bar were carefully removed, and the contents of the flask were transferred to a 60 mL separatory funnel. The layers were allowed to stand to achieve good separation. The layers were separated using the separatory funnel. Each layer was individually allowed to evaporate to dryness over night on a pre-weighed watchglass. The ratio of amounts of dry compound remaining after evaporation of the layers on the two watchglasses was obtained (chloroform to water). This ratio was then compared to the same ratio for isoniazid as standard, giving the estimate of relative lipophilicities. The lipophilicity comparison was expressed as • [Acmpd(CHCl3)/Acmpd(H2O): Ainh(CHCl3)/Ainh(H2O)], where • Acmpd(solvent) refers to the amount of compound in chloroform or water, as appropriate and • Ainf(solvent) refers to the amount of isonicotinic acid hydrazide in chloroform or water, as appropriate. Representative examples of the comparisons are provided in FIG. 1 and in the following Chart. Within the Chart, numbers refer to compounds derived from the individual examples of experimental procedures within each family. Chart. Quantitative Estimates of Relative Lipophilicities of the Compounds of the Invention Compound of Schiff Base Example (Relative Lipophilicity) • 43(200) • 45(45) • 47(316) • 48(566) • 49(433) • 51(400) • 52(189) Compound of Oxadiazoline Example (Relative Lipophilicity) • 4(35,667) • 8(1333) • 9(1426) • 10(3080) General Structural Outline for Schiff Base Synthesis [drawing 48]

SMILES: CC(=O)N1N=C(c2ccncc2)OC1c1ccccc1[N+](=O)[O-] (stereo not shown) [Oxadiazoline Example 8, 2-(2-Nitrophenyly)-3-acetyl-5-(4-pyridyl)-1,3,4-oxadiazoline]
- Relative Lipophilicity: 1333

SMILES: CC(=O)N1N=C(c2ccncc2)OC1c1ccc(F)c(F)c1 (stereo not shown) [Oxadiazoline Example 9, 2-(3,4-Difluorophepyl)-3-acetyl-5-(4-pyridyl)-1,3,4-oxadiazoline]
- Relative Lipophilicity: 1426
- lipophilicity compared with INH (in words): some three orders of magnitude greater than that of INH

SMILES: CC(=O)N1N=C(c2ccncc2)OC1c1ccc(Cl)c(Cl)c1 (stereo not shown) [Oxadiazoline Example 10, 2-(3.4-Dichlorophenyl)-3-acetyl-5-(4-pyridyl)-1,3,4-oxadiazoline]
- Relative Lipophilicity: 3080

SMILES: O=C(NN=Cc1cccc([N+](=O)[O-])c1)c1ccncc1 [Schiff Base Example 43, Isonicotinoylhydrazone of 3-Nitrobenzaldehyde]
- Relative Lipophilicity: 200

SMILES: O=C(NN=Cc1cc([N+](=O)[O-])ccc1Cl)c1ccncc1 [Schiff Base Example 45, Isonicotinoylhydrazone of 2-Chloro-5-nitrobenzaldehyde]
- Relative Lipophilicity: 45

SMILES: O=C(NN=Cc1c(Cl)cccc1Cl)c1ccncc1 [Schiff Base Example 48, Isonicotinoylhydrazone of 2.6-Dichlorobenzaldehyde]
- Relative Lipophilicity: 566

SMILES: O=C(NN=Cc1cccc(Cl)c1Cl)c1ccncc1 [Schiff Base Example 49, Isonicotinoylhydrazone of 2,3-Dichlorobenzaldehyde]
- Relative Lipophilicity: 433

SMILES: O=C(NN=Cc1ccc(F)c(F)c1)c1ccncc1 [Schiff Base Example 51, Isonicotinoylhydrazone of 3,4-Difluorobenzaldehyde]
- Relative Lipophilicity: 400

SMILES: O=C(NN=Cc1c(F)cccc1F)c1ccncc1 [Schiff Base Example 52, Isonicotinoylhydrazone of 2,6-Difluorobenzaldehyde]
- Relative Lipophilicity: 189
